Measured values as given in patent US8273854B2, “GLP-1 analog fusion proteins” (Eli Lilly and Company, dated 2012).

B1: Gly^8-Glu^22-Gly^36-GLP-1(7-37)-2L-IgG4 (S228P, F234A, L235A) (Fc fusion)
chain: HGEGTFTSDVSSYLEEQAAKEFIAWLVKGGGGGGGSGGGGSGGGGSGGGGSGGGGSGGGGSA[letters of human IgG4 Fc with S228P F234A L235A (EU numbers) left out]
B2: Gly^8-Glu^22-GLP-1(7-37)-2L-IgG4 (S228P, F234A, L235A) (Fc fusion)
chain: B1 chain with G30R
B3: Gly^8-Glu^22-GLP-1(7-37)-1.5L-IgG4 (S228P, F234A, L235A) (Fc fusion)
chain: HGEGTFTSDVSSYLEEQAAKEFIAWLVKGRGGSGGGGSGGGGSGGGGSGGGGSA[letters of human IgG4 Fc with S228P F234A L235A (EU numbers) left out]
B4: Gly^8-Glu^22-GLP-1(7-37)-1L-IgG4 (S228P, F234A, L235A) (Fc fusion)
chain: HGEGTFTSDVSSYLEEQAAKEFIAWLVKGRGGGGGSGGGGSGGGGSA[letters of human IgG4 Fc with S228P F234A L235A (EU numbers) left out]
B5: Gly^8-Glu^22-Gly^36-GLP-1(7-37)-1L-IgG4 (S228P, F234A, L235A) (Fc fusion)
chain: B4 chain with R30G

target: T1, human GLP-1 receptor (human, UniProt P43220); experiment: cell-based or functional assay

| Activity (EC50 relative to Val^8-GLP-1(7-37)OH), CRE-BLAM beta-lactamase reporter [%] | Binder |
| --- | --- |
| 441 | B1 |
| 301 | B2 |
| 314 | B3 |
| 468 | B4 |

target: T1, human GLP-1 receptor; experiment: cell-based or functional assay; remark: another data set of the same source

| Activity (EC50 relative to Val^8-GLP-1(7-37)OH), CRE-Luciferase reporter [%] | Binder |
| --- | --- |
| 398 | B1 |
| 535 | B2 |
| 595 | B3 |
| 1120 | B4 |
| 417 | B5 |

Positions count from the first letter of the chain named. Names and notes keep the numbering of the source.
